Laboratory results reported in PMC4336329 (PLoS ONE, 2015).
Among all 310,000 compounds or so, about 14,000 (4.5%) showed an effect of 50% or more. Effects have a minus sign here. The list shows a part of the results.
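Also: peak tail current of the secondary pulse compared with the same well before compound.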

What follows are compounds tested against human ether-à-go-go-related gene (hERG) potassium channel (human, UniProt Q12809) (assay: primary screen, population patch clamp on CHO cells stably expressing hERG).
Sequence of human ether-à-go-go-related gene (hERG) potassium channel (Q12809 whole entry, looked up): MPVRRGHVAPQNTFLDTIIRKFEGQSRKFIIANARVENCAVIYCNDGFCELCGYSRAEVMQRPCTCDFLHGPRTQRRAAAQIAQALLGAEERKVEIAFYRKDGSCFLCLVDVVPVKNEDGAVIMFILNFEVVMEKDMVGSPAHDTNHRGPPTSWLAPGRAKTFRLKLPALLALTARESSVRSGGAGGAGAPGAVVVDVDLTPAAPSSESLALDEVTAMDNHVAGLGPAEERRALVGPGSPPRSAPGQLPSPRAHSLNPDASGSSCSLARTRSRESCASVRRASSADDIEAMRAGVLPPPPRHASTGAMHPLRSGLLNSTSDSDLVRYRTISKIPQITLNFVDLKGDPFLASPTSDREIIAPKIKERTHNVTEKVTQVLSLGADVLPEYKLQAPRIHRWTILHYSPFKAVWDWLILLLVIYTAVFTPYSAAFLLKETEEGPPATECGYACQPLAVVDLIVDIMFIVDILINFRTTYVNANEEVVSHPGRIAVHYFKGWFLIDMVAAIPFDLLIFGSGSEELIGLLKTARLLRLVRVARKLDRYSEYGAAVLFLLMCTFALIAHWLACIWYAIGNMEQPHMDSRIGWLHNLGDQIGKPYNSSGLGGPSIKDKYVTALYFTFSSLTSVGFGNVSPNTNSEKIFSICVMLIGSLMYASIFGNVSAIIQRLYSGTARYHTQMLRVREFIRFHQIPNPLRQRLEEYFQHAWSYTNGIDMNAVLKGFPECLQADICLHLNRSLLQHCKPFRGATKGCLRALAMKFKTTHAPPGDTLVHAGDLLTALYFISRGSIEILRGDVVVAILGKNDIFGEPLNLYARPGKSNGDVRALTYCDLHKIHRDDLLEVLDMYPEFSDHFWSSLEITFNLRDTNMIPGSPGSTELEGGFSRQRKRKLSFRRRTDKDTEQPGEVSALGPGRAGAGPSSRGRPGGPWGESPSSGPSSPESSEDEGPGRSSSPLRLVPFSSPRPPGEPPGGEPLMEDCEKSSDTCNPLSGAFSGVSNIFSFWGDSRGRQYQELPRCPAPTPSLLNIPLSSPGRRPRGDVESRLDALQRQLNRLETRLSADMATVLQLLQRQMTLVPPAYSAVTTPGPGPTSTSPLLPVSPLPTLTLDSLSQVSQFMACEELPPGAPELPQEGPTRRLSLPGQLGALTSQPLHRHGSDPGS
For `Cc1scc(C(=O)NNC(=S)NCc2ccccc2)c1C`, the “hERG current change (%, negative = inhibition) at 10uM” value was 3.71%.
`O=C(O)C1CCCN1C(=O)OCc1ccccc1` (stereo not shown) was tested, and the “hERG current change (%, negative = inhibition) at 10uM” value was -12%.
With `O=C(NC1CC(=O)N(c2ccc3c(c2)OCCO3)C1)N1CCCCC1` (stereo not shown) the “hERG current change (%, negative = inhibition) at 10uM” value was 12.4%.
`COc1ccc(C(=O)N2CCOCC2)cc1Br` was tested, and the “hERG current change (%, negative = inhibition) at 10uM” value was 25.3%.
In the case of `O=C1CC(C(=O)N2CCN(Cc3ccccc3)CC2)CN1Cc1ccccc1` (stereo not shown), the “hERG current change (%, negative = inhibition) at 10uM” value is reported as -39.7%.
With `CN(C1CCS(=O)(=O)C1)S(=O)(=O)c1ccc(C2CCCCC2)cc1` (stereo not shown) the “hERG current change (%, negative = inhibition) at 10uM” value was 6.87%.
With `CCCN(CCC)CCCNC(=O)c1ccc(CS(=O)(=O)c2c(Cl)cccc2Cl)o1` the “hERG current change (%, negative = inhibition) at 10uM” value was -73.1%.
`CN(C)c1ccc(C(=O)OCC(=O)NCCCc2ccccc2)cc1` was tested, and the “hERG current change (%, negative = inhibition) at 10uM” value was -9.09%.
In the case of `CC(=O)c1c(N2CCN(Cc3ccccc3)CC2)[nH]c(-c2ccccc2)nc1=S`, the “hERG current change (%, negative = inhibition) at 10uM” value is reported as 2.17%.
`Cc1ccccc1OCc1nnc(SCc2cc(=O)[nH]c3ccccc23)o1` was tested, and the “hERG current change (%, negative = inhibition) at 10uM” value was 7.77%.
For `CCCCc1ccc(NS(=O)(=O)c2cccc(C(=O)N3CCCN(C)CC3)c2)cc1`, the “hERG current change (%, negative = inhibition) at 10uM” value was -35.2%.
In the case of `CC(C)(C)C1CCc2c(sc3ncn(N)c(=N)c23)C1` (stereo not shown), the “hERG current change (%, negative = inhibition) at 10uM” value is reported as -41.5%.
In the case of `CN(C)CCCSc1nc2ccccc2s1.Cl`, the “hERG current change (%, negative = inhibition) at 10uM” value is reported as 7.45%.
`COc1ccc(N2C(=S)NC3CS(=O)(=O)CC32)cc1` (stereo not shown) was tested, and the “hERG current change (%, negative = inhibition) at 10uM” value was 6.44%.
With `COc1ccc(CNC(=O)CCSc2ccc(F)cc2)cc1OC` the “hERG current change (%, negative = inhibition) at 10uM” value was -10.2%.
For `Oc1ccc(CNc2ccccc2)c2cccnc12`, the “hERG current change (%, negative = inhibition) at 10uM” value was 21.4%.
`O=C(CCC(=O)c1ccc(F)cc1)Nc1cc(Cl)cc(Cl)c1` was tested, and the “hERG current change (%, negative = inhibition) at 10uM” value was 16.1%.
`CCc1cc(=O)oc2cc(C)cc(OCC(=O)NCc3ccncc3)c12` was tested, and the “hERG current change (%, negative = inhibition) at 10uM” value was -54.8%.
With `Cc1nn(-c2ccccc2)c(Cl)c1/C=N/NC(=O)OC(C)(C)C` the “hERG current change (%, negative = inhibition) at 10uM” value was 1.2%.
For `O=C1C2CC=CCC2C(=O)N1c1n[nH]c(CCc2ccccc2)n1` (stereo not shown), the “hERG current change (%, negative = inhibition) at 10uM” value was 6.91%.
In the case of `Cc1nn(C)c(C)c1S(=O)(=O)N(CC(=O)NCCCN1CCC(C)CC1)c1ccc(C(C)C)cc1`, the “hERG current change (%, negative = inhibition) at 10uM” value is reported as -64.7%.
With `Cc1ccc(C)c(N2CCN(S(=O)(=O)c3ccc4[nH]c(=O)ccc4c3)CC2)c1` the “hERG current change (%, negative = inhibition) at 10uM” value was 7.7%.
With `Cc1ccc(OCC(=O)NC2=NCCS2)cc1` the “hERG current change (%, negative = inhibition) at 10uM” value was 21.5%.
With `O=C(CCl)Nc1ccc(-c2ccccc2)cc1` the “hERG current change (%, negative = inhibition) at 10uM” value was 17.4%.
With `COc1ccc(Oc2c(C)nc(SCC(=O)c3ccc(Cl)cc3)[nH]c2=O)cc1` the “hERG current change (%, negative = inhibition) at 10uM” value was 15.6%.
With `CCC(=NCc1cccnc1)c1c(O)n(-c2ccccc2C)c(=O)[nH]c1=O` the “hERG current change (%, negative = inhibition) at 10uM” value was 8.87%.
For `O=C(O)CC1(CC(=O)Nc2ccccc2C(=O)c2ccccc2)CCCC1`, the “hERG current change (%, negative = inhibition) at 10uM” value was 22.8%.
With `CC(C)CCP(=O)(O)c1ccccc1` the “hERG current change (%, negative = inhibition) at 10uM” value was -0.142%.
For `COc1ccc(CNc2ncnc(N)n2)cc1.Cl`, the “hERG current change (%, negative = inhibition) at 10uM” value was 3.14%.
For `CCOC(=O)c1ccc(NC(=O)NC(C)C2CCCO2)cc1` (stereo not shown), the “hERG current change (%, negative = inhibition) at 10uM” value was -9.61%.
With `Cc1c(NC(=O)c2cc(-n3cnnc3)ccc2Cl)cccc1-c1nc2ccccc2s1` the “hERG current change (%, negative = inhibition) at 10uM” value was -21.8%.
With `CC(C)(C)c1ccc(C(=O)Cn2nc(C(=O)O)c3ccccc3c2=O)cc1` the “hERG current change (%, negative = inhibition) at 10uM” value was -6.48%.
With `O=C(CSc1nnc(C2COc3ccccc3O2)o1)N1CCCCC1` (stereo not shown) the “hERG current change (%, negative = inhibition) at 10uM” value was -6.59%.
For `Cc1cc(NC(=O)CCCC(=O)N(CC(=O)NCCc2ccccc2)Cc2ccc(F)cc2)no1`, the “hERG current change (%, negative = inhibition) at 10uM” value was -39.8%.
With `Cn1nnnc1SCc1nc2scc(-c3ccc(Cl)cc3)c2c(=O)[nH]1` the “hERG current change (%, negative = inhibition) at 10uM” value was -11.1%.
In the case of `O=C(Oc1ccccc1F)C1CCN(C(=O)c2ccc(F)cc2)CC1`, the “hERG current change (%, negative = inhibition) at 10uM” value is reported as -7.7%.
For `O=C([O-])CCSc1ccc2ccccc2n1.[Na+]`, the “hERG current change (%, negative = inhibition) at 10uM” value was 12.6%.
In the case of `Cl.NCCCCCC(=O)Nc1ccncc1`, the “hERG current change (%, negative = inhibition) at 10uM” value is reported as 15.3%.
`O=S(=O)(c1ccc(F)c(F)c1)N1CCN(CCc2ccccc2)CC1` was tested, and the “hERG current change (%, negative = inhibition) at 10uM” value was -2.71%.
`COc1cccc(OCCOCCN(C)CCO)c1` was tested, and the “hERG current change (%, negative = inhibition) at 10uM” value was 8.06%.
In the case of `COc1ccc(CNC(=O)C/C(C)=N/NC(=O)COc2cccc(C)c2)cc1`, the “hERG current change (%, negative = inhibition) at 10uM” value is reported as -18.7%.
For `CCOC(=O)C1=C(N)OC2=C(C(=O)CC(C)(C)C2)C1c1ccccc1OC` (stereo not shown), the “hERG current change (%, negative = inhibition) at 10uM” value was 14.7%.
`COc1cc(/C=N/NC(=O)C23CC4CC(CC(C4)C2)C3)cc(Br)c1O` was tested, and the “hERG current change (%, negative = inhibition) at 10uM” value was -5.77%.
With `Cc1cc(NS(=O)(=O)c2ccc(NC(=O)Cc3ccccc3)cc2)nc(C)n1` the “hERG current change (%, negative = inhibition) at 10uM” value was 10.5%.
For `COc1ccc(C(=O)N(Cc2cccs2)C2CCS(=O)(=O)C2)cc1` (stereo not shown), the “hERG current change (%, negative = inhibition) at 10uM” value was 14.2%.
For `Cc1ccccc1C(=O)NC1CCN(C(=O)Nc2ccc(F)cc2)CC1`, the “hERG current change (%, negative = inhibition) at 10uM” value was -13.8%.
In the case of `CCC(=O)NC(=S)Nc1cccc(NC(=O)c2ccco2)c1`, the “hERG current change (%, negative = inhibition) at 10uM” value is reported as 11.3%.
For `O=C(Nc1cccc(-c2nnc(-c3ccco3)o2)c1)C(c1ccccc1)c1ccccc1`, the “hERG current change (%, negative = inhibition) at 10uM” value was 16.9%.
With `CS(=O)(=O)c1cccc(C(=O)Nc2ccc3c(c2)OCCCO3)c1` the “hERG current change (%, negative = inhibition) at 10uM” value was 11.6%.
`Cc1cccc(NC(=O)c2cccc(N3C(=O)C4CCC(C)CC4C3=O)c2)c1C` (stereo not shown) was tested, and the “hERG current change (%, negative = inhibition) at 10uM” value was -1.92%.
With `Cc1cc(C)cc(C(=O)NC(CC(N)=O)c2ccc(N3CCCCCC3)c([N+](=O)[O-])c2)c1` (stereo not shown) the “hERG current change (%, negative = inhibition) at 10uM” value was 13.5%.
For `C/C=C(\C)C(=O)NCCN1C2=NC[C@H](C(C)C)N2C[C@H]1Cc1ccc(O)cc1`, the “hERG current change (%, negative = inhibition) at 10uM” value was 23.1%.
With `Cc1cc(N2CCCC2)n2nc(C)nc2n1` the “hERG current change (%, negative = inhibition) at 10uM” value was -11.8%.
With `O=C(NC1CCCCCCC1)c1cc(F)c(F)cc1Cl` the “hERG current change (%, negative = inhibition) at 10uM” value was -16.5%.
With `Cc1cc(C)cc(N(C(=O)CNS(=O)(=O)c2ccccc2)C(C(=O)NCc2ccccc2)c2ccc(C)o2)c1` (stereo not shown) the “hERG current change (%, negative = inhibition) at 10uM” value was 3.98%.
For `O=C(COC(=O)c1ccccc1NC(=O)c1ccco1)NCC1CCCCC1`, the “hERG current change (%, negative = inhibition) at 10uM” value was -11.9%.
In the case of `O=C(OCC(=O)N1CCN(c2ccccc2)CC1)c1ccc(O)cc1O`, the “hERG current change (%, negative = inhibition) at 10uM” value is reported as 5.77%.
For `CCC(C)Nc1cc(C)nc2ncnn12` (stereo not shown), the “hERG current change (%, negative = inhibition) at 10uM” value was 53.6%.
